Reference: PubChem BioAssay AID2546 (National Center for Advancing Translational Sciences (NCATS), 2010)
Out of some 310,000 compounds screened, about 11,000 (3.5%) were called active. The shares of active, inactive and inconclusive entries below differ from those in the screen. The call rests on the fitted dose curve; in most records, active means well fitted inhibition curve with a large enough effect; inconclusive means small, poorly fitted or top-dose-only effect, or effect the other way; inactive means flat fitted curve, though single readings scatter. No potency is given beside an inconclusive call; the fits are too rough.

Experiment: VP16 counterscreen qHTS for inhibitors of ROR gamma transcriptional activity;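 further: Gal4-VP16 expression switched on by copper sulfate through the metallothionein promoter; nearly all actives have a fitted effect of over 50% in size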
Conditions: Drosophila S2 Gal4-VP16 UAS-luciferase, luminescence, 20 h; activity, negative = inhibition: at 53.6 µM (top of the series)
On the % scale 0 is the no-effect control and ±100 the full control effect; potency means the concentration at half of the fitted maximal effect; tags describe the fitted curve by direction and shape.

SMILES	Potency	activity, negative = inhibition
COC(=O)C1=C(C)N(c2ccc(Br)cc2)C(=O)/C1=C\c1ccco1	inconclusive [inhibitor, single point]	–
Cc1ccc(N2C(=O)[C@@H]3[C@H](C2=O)[C@H]2C=CC=NN2[C@@H]3C(=O)Nc2ccc(Cl)cc2)cc1	inconclusive [inhibitor, single point]	–
O=C(CCCCCNC(=O)c1ccccc1)N/N=C/c1ccco1	–	inactive: -6.48%
O=C(CCc1ccccc1)Nc1nnc(-c2ccc3c(c2)OCCO3)o1	inconclusive [inhibitor, partial curve]	–
COc1ccc(NC(=O)CSc2nc3[nH]ncc3c(=O)n2-c2ccccc2C)cc1OC	–	inactive: 2.86%
COc1ccc(N2C(=O)CC(NNC(=O)c3ccc(Br)s3)C2=O)cc1 (configuration not stated)	–	inactive: -5.35%
CCC1=NN(C(=O)c2cccnc2)C(O)(C(F)(F)F)C1 (configuration not stated)	inconclusive [inhibitor, single point]	–
CCCSc1nc(=S)n(Cc2ccccc2)c(C)c1C(C)=O	inconclusive [inhibitor, single point]	–
O=C(Nc1ccc(Cn2cccn2)cc1)c1ccc(COc2ccc(Br)cc2)cc1	–	inactive: 15.3%
O=C(C1CCCN(S(=O)(=O)c2ccc(Br)cc2)C1)N1CCOCC1 (configuration not stated)	–	inactive: -12.1%
O=C(Cn1cnc2ccccc21)N/N=C/c1ccco1	inconclusive [inhibitor, single point]	–
Cc1ccc(S(=O)(=O)N2c3ccccc3-c3c(ssc3=S)C2(C)C)cc1	inconclusive [inhibitor, single point]	–
COC(=O)c1cc(=O)n(-c2ccc(F)cc2)c(=Nc2ccc(F)cc2)s1	active: 15.8 µM	–
Cc1ccc(NC(=O)Nc2cccs2)c(Cl)c1	–	inactive: -5.95%
COc1ccc2c(c1)OCC(Cc1ccc(OC)c(OC(C)=O)c1)C2=O (configuration not stated)	inconclusive [inhibitor, single point]	–
Cc1ccc(C(C)C)c(OCc2ccc(C(=O)N/N=C/c3ccc(C(=O)O)cc3)cc2)c1	inconclusive [inhibitor, partial curve, poor fit]	–
O=C(O)c1cccc(NC(=S)N/N=C/c2ccccn2)c1	inconclusive [inhibitor, partial curve]	–
O=C(NN1C(=O)/C(=C/C=C/c2ccco2)SC1=S)c1ccncc1	–	inactive: -2.42%
CC(C)(C)C(=O)/C=c1\[nH]c(=O)/c(=C\c2ccc(F)cc2)s1	inconclusive [inhibitor, single point]	–
CNC(=S)SCCOc1ccccc1C	inconclusive [inhibitor, partial curve]	–
CC(CN1CCCC1)C(=O)NN (configuration not stated)	–	inactive: -3.12%
O=C(O)c1cccc([N+](=O)[O-])c1C(=O)Nc1ccc2ccccc2c1	inconclusive [inhibitor, single point]	–
CC(C)(C)c1ccc(C(=O)O/N=C(\N)c2ccccn2)cc1	active: 5.01 µM	–
COc1cc(NC(=O)c2cc(Br)cc(C)c2OC)ccc1NC(=O)C(C)C	–	inactive: -1.12%

SMILES	Potency	activity, negative = inhibition
CCOC(=O)c1c(NC(=S)NCC2CCCO2)sc(C)c1C (configuration not stated)	active: 4.47 µM	–
CCN(CC)c1ccc(NC(=O)c2ccco2)cc1	inconclusive [inhibitor, single point]	–
Cc1ccc(C(C)C)c(OCCN2CCc3ccccc3C2)c1	inconclusive [inhibitor, single point]	–
S=c1[nH]nc(CCc2ccc(Cl)cc2)o1	inconclusive [inhibitor, single point]	–
COc1ccc(C(=O)c2cn[nH]c2-c2ccc(C)cc2O)cc1	–	inactive: 5.61%
CCc1cc(SC#N)ccc1N	inconclusive [inhibitor, single point]	–
O=C(CCn1c(=O)sc2ccccc21)Nc1nc2ccccc2s1	inconclusive [activator, single point]	–
COc1ccccc1NS(=O)(=O)c1cc(NC(=O)c2cnccn2)ccc1N1CCOCC1	–	inactive: -14.2%
COc1cccc(CNc2ncnc3ccc(-c4c(C)noc4C)cc23)c1	inconclusive [inhibitor, single point]	–
C=CCNC(=S)Nc1ccc(OC(F)F)c(Cl)c1	inconclusive [inhibitor, single point]	–
O=C(NNC1=NS(=O)(=O)c2ccccc21)c1ccccc1	inconclusive [inhibitor, partial curve]	–
O=C(/C=C/c1ccc(F)cc1)NC(=S)Nc1ccccc1O	inconclusive [inhibitor, single point]	–
C=CC1=C(C(=O)O)N2C(=O)[C@@H](NC(=O)C(N=O)c3csc(N)n3)[C@H]2SC1 (some centres not stated)	inconclusive [inhibitor, single point]	–
O=C(CNc1cccc(C(F)(F)F)c1)N/N=C/c1cccc(Br)c1	inconclusive [inhibitor, single point]	–
COc1ccc(N(CC(=O)NCc2ccco2)S(=O)(=O)c2ccccc2)cc1	inconclusive [inhibitor, single point]	–
O=C(CSc1nc2ccccc2s1)NNC(=S)Nc1ccc(Cl)cc1	active: 8.91 µM	–
Cc1cccc(-c2n[nH]c(=S)n2/N=C/c2ccc(C)s2)c1	active: 5.62 µM	–
CC(C)NC(=O)c1onc(CSc2ccc(Cl)cc2)c1C(=O)O	inconclusive [inhibitor, single point]	–
COC(=O)c1cc(=O)n(Cc2ccco2)c(=Nc2ccc(F)cc2)s1	inconclusive [inhibitor, single point]	–
Cc1onc(-c2ccccc2)c1C(=O)N(Cc1ccco1)Cc1cccs1	inconclusive [inhibitor, single point]	–
C=CCOc1ccc(CNc2ccc(NC(=O)CC(C)C)cc2)cc1OC	–	inactive: -13.5%
O=[N+]([O-])c1cc([N+](=O)[O-])c2cccnc2c1Oc1ccccc1O	inconclusive [inhibitor, single point]	–
C/C(=N\NC(=O)CSCc1ccccc1Br)c1cccc([N+](=O)[O-])c1	inconclusive [inhibitor, partial curve]	–
